Assay results reported in article PMC2727002.
These are yes or no findings as the source states them, for the method shown. In cells and extracts the contact can be indirect. Some entries that bind do so weakly or less than the wild type. Where a sequence is shown, tags or fusion partners need not be part of it.

How the values were obtained:
[1] = biological target: T1, Tap-tagged Rrp41 (yeast) (UniProt P46948); test: co-IP; tandem affinity purification of Tap-tagged Rrp41 from 2 g of wild-type total extract treated with RNAse A (for Rrp4 and Rrp43: treated or not); eluate blotted with antibodies against CBP, Rrp4, Rrp43 and Not5
T1 sequence: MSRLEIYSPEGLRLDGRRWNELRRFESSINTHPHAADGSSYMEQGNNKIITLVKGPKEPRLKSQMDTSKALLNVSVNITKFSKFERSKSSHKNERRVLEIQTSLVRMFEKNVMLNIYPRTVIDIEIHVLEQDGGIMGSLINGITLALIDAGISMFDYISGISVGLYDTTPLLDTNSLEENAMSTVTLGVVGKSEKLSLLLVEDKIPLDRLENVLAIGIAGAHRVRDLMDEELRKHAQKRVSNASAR

[2] = biological target: T1, Tap-tagged Rrp41 (yeast); test: co-IP; affinity purification of Tap-tagged Rrp41 from total extracts of not4Δ or caf40Δ cells; purified material blotted with antibodies against Not5 and CBP
[3] = biological target: T2, Tap-tagged Rrp40 (yeast) (UniProt Q08285); test: co-IP; 2 mg of extract of cells expressing a Tap-tagged protein incubated overnight at 4°C with protein G magnetic beads with or without antibody against CBP; 40 mM Hepes pH 7.5, 1 mM EDTA, 20% glycerol, 150 mM potassium acetate, 100 mM potassium chloride; wild-type, caf40Δ or not4Δ cells as named; western blot
T2 sequence: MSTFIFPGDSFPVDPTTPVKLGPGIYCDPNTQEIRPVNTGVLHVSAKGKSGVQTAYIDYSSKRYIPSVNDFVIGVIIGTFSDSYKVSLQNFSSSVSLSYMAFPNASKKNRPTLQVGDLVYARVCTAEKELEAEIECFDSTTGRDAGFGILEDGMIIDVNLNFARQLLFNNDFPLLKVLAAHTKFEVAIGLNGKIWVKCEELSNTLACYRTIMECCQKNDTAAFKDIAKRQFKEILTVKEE

[4] = biological target: T3, Tap-tagged Air2 (yeast) (UniProt Q12476); test: as above
T3 sequence: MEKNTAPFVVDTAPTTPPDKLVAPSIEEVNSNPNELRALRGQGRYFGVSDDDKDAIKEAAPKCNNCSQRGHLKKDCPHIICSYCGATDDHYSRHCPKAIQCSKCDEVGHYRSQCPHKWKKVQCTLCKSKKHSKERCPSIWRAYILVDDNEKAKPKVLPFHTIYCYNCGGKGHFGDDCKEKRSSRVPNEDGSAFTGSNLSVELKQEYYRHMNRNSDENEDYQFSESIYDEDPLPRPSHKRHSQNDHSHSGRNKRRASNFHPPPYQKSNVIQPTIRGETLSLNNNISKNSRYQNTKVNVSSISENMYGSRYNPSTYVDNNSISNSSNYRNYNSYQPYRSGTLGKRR

[5] = biological target: T4, Tap-tagged Air1 (yeast) (UniProt P40507); test: co-IP; Tap-tagged Mtr4 or Tap-tagged Air1, polyclonal antibodies against the Ccr4-Not complex subunits; data not shown
T4 sequence: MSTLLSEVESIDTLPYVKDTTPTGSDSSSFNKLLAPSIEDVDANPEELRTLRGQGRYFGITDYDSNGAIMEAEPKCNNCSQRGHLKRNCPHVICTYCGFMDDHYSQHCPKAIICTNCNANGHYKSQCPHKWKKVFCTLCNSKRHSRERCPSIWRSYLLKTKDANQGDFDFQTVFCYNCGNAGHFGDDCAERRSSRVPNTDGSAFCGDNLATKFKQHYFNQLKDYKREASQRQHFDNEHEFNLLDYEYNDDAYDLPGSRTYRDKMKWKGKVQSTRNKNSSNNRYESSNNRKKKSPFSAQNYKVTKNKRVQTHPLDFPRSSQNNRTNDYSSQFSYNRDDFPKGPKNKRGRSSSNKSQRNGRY

[6] = biological target: T5, Tap-tagged Mtr4 (yeast) (UniProt P47047); test: as above
T5 sequence: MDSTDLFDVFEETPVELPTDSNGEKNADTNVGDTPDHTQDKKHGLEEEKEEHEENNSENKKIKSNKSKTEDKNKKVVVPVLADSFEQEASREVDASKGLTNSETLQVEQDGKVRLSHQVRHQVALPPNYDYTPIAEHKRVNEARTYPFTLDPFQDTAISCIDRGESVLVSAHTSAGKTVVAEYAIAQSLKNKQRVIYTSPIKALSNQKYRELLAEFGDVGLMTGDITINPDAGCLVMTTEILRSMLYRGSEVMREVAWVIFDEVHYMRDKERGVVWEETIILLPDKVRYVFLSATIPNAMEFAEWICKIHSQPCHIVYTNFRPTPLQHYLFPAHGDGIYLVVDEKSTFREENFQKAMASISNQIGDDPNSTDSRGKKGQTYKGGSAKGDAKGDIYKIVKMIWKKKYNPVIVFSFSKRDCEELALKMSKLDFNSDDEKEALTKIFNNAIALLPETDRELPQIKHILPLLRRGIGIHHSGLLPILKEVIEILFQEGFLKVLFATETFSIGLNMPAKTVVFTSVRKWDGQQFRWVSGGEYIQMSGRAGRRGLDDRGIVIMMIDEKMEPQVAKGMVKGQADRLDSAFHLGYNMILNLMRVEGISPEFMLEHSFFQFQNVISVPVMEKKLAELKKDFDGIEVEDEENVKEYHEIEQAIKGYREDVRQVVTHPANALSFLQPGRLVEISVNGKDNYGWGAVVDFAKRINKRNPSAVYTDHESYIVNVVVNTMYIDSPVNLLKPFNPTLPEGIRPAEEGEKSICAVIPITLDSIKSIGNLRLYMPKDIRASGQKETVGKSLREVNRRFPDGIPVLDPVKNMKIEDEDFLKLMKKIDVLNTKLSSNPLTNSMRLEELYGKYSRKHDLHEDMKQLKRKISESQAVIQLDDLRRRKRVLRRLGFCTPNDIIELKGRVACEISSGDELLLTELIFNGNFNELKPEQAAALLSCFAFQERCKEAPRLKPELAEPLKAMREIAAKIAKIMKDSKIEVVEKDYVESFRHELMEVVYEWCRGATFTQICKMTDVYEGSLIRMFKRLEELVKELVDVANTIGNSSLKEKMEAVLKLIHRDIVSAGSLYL

[7] = biological target: T1, Tap-tagged Rrp41 (yeast); test: condition: only from wild-type cells or the other ccr4-not mutants, extract not treated with RNAse; co-IP; affinity purification of Tap-tagged Rrp41 from extracts of wild-type cells or of the other ccr4-not mutants, not treated with RNAse; blotted with antibodies against Not5 and CBP

binding [1]: binds | binding [2]: binds | binding [3]: binds | binding [4]: binds | binding [5]: binds | binding [6]: binds | binding [7]: no binding
B1: Not5 (protein, UniProt Q12514 1-560)
chain: MSQRKLQQDIDKLLKKVKEGIEDFDDIYEKFQSTDPSNSSHREKLESDLKREIKKLQKHRDQIKTWLSKEDVKDKQSVLMTNRRLIENGMERFKSVEKLMKTKQFSKEALTNPDIIKDPKELKKRDQVLFIHDCLDELQKQLEQYEAQENEEQTERHEFHIANLENILKKLQNNEMDPEPVEEFQDDIKYYVENNDDPDFIEYDTIYEDMGCEIQPSSSNNEAPKEGNNQTSLSSIRSSKKQERSPKKKAPQRDVSISDRATTPIAPGVESASQSISSTPTPVSTDTPLHTVKDDSIKFDNSTLGTPTTHVSMKKKESENDSEQQLNFPPDRTDEIRKTIQHDVETNAAFQNPLFNDELKYWLDSKRYLMQPLQEMSPKMVSQLESSLLNCPDSLDADSPCLYTKPLSLPHPTSIFFPNEPIRFVYPYDVPLNLTNNENDTDNKFGKDSKAKSKKDDDIYSRTSLARIFMKFDLDTLFFIFYHYQGSYEQFLAARELFKNRNWLFNKVDRCWYYKEIEKLPPGMGKSEEESWRYFDYKKSWLARRCGNDFVYNEEDFEKL
